# From article PMC4336329 (PLoS ONE, 2015)
# The whole screen tested about 310,000 compounds, of which about 2,200 (0.71%) showed an effect of 50% or more. The effect is printed as a negative number. This is one part of the list.
# Target: human ether-à-go-go-related gene (hERG) potassium channel (human, UniProt Q12809)
# Test: primary screen, population patch clamp on CHO cells stably expressing hERG
# Chain of human ether-à-go-go-related gene (hERG) potassium channel (Q12809 whole entry, looked up): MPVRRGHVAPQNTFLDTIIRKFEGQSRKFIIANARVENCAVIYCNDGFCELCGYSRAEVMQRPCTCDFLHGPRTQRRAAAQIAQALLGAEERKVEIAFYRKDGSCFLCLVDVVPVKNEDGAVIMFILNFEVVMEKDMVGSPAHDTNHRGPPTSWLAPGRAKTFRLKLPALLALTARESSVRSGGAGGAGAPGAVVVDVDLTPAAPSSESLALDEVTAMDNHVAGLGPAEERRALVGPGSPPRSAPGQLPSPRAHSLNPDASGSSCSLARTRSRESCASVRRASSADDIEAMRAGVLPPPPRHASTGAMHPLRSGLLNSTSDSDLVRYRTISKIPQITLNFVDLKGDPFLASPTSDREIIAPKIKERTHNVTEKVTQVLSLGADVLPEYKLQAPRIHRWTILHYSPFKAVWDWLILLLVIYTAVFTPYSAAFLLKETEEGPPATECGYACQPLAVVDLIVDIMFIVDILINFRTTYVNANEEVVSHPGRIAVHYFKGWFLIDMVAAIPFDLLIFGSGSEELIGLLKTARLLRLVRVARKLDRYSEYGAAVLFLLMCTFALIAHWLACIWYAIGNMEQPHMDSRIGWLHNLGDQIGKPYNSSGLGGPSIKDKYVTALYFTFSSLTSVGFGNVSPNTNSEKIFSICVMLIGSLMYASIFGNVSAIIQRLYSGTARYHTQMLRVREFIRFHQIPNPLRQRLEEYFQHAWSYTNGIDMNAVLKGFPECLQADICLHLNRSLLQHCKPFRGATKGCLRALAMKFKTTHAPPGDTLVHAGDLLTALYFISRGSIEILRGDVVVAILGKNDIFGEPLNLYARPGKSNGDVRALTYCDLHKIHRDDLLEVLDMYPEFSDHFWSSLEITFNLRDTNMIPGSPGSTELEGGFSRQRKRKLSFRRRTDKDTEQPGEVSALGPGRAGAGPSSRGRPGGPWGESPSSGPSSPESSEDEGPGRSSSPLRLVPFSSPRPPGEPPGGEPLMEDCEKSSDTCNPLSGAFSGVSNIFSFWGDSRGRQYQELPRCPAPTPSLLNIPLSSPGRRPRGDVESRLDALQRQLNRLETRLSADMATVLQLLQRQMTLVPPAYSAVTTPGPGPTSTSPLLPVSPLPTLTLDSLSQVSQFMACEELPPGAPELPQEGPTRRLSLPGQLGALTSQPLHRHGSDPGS
row,Compound,"hERG current change (%, negative = inhibition) at 1uM [%]"
1,O=C(NCC1CCCO1)c1cccc(S(=O)(=O)Nc2ccc(SC(F)F)cc2)c1 (centres unmarked),3.27
2,CC(C)(C)n1ncc2c(=O)n(Cc3ccc(Cl)cc3)cnc21,19.1
3,COc1ccc(CN=C2NC(=O)CC(C(=O)Nc3ccc(F)cc3)S2)cc1 (centres unmarked),-3.12
4,C[C@@H](NC(=O)c1nc[nH]c1C(=O)N1CCc2ccccc2C1)c1ccccc1,6.7
5,O=C(CC1C(=O)NCCN1Cc1ccccc1)NCCN1CCCCC1=O (centres unmarked),15.3
6,COCCNC(=O)CN(C(=O)Cn1nnc2ccccc21)c1cccc(C)c1C,4.11
7,CCCn1nc(C(=O)Nc2nnc(CC)s2)c2ccccc2c1=O,5.44
8,CSCCC(NS(=O)(=O)c1ccccc1)C(=O)OC(C)C(=O)Nc1ccc(Cl)cn1 (centres unmarked),7.33
9,Cc1cc2cc(CNC(=O)c3cccs3)ccc2[nH]1,13.6
10,Cc1ccccc1NC(=O)c1cc(S(=O)(=O)c2ccccc2)ccc1Cl,8.97
11,Cc1c(C(=O)NC(c2ccccn2)C(F)(F)F)oc2c(F)cccc12 (centres unmarked),12.1
12,CCC(C)[C@H](NC(=O)N1CC(=O)Nc2ccccc21)C(=O)N1CCC(C(=O)O)CC1 (some centres unmarked),15.2
13,Cc1cc(Cl)ccc1OCC(=O)OCC(=O)Nc1cccnc1Cl,4.73
14,CCC(=O)Nc1cccc(C2=NOC3(C2)C[C@@H](C(N)=O)N(C(=O)CC(c2ccccc2)c2ccccc2)C3)c1 (some centres unmarked),4.24
15,Cc1ccc(C(=O)c2cc([N+](=O)[O-])ccc2N2CCCCC2)cc1,5.9
16,O=C(NC1CCCCC1)C1CC(=O)N(Cc2ccccc2)C1 (centres unmarked),13.3
17,COc1ccc(C(=O)Nc2ccc(NC(=O)c3ccccc3F)cn2)cc1,12.9
18,O=C(NNC(=S)Nc1ccccc1Cl)c1ccccc1,4.02
19,COc1ccc(NC(=O)c2ccc3c(c2)OCO3)cc1[N+](=O)[O-],13
20,CN(C)c1ccc(CNn2cnnc2SCc2ccccc2F)cc1,-3.75
21,CCC(C)C(=O)Nc1cccc(SC)c1 (centres unmarked),13.6
22,O=C(c1nc2ccccn2c1CNCC1OCCc2ccccc21)N1CCOCC1 (centres unmarked),10.1

row,Compound,"hERG current change (%, negative = inhibition) at 1uM [%]"
1,CCN(CC(=O)NCc1ccc(F)cc1)C(=O)c1ccc(Cl)cc1,-2.66
2,COc1ccc(-c2noc(CN(C(=O)c3c(-c4ccccc4Cl)noc3C)C(C)C)n2)cc1,10.8
3,CC1(C)Cc2c(cnn2-c2ccccc2)-c2c1c1ccccc1n2CC(O)CCl (centres unmarked),4.97
4,Cc1cc(C(=O)Nc2ccccc2C(F)(F)F)no1,16.3
5,CC(=O)NC(CCS(C)(=O)=O)C(=O)N1CCc2ccccc21 (centres unmarked),4.59
6,N#CCCN1CCN(S(=O)(=O)c2ccc(S(=O)(=O)NCC3CCCO3)cc2)CC1 (centres unmarked),5.57
7,O=C(NNC(=O)c1ccc2c(=O)n3c(nc2c1)CCC3)c1ccc(Cl)cc1,6.5
8,Cc1c(NC(=O)CSc2ccc3c(c2)OCCO3)c(=O)n(-c2ccccc2)n1C,4.74
9,COc1cc(/C=C(\C#N)C(=O)NCC2CCCO2)ccc1OCC(N)=O (centres unmarked),20.8
10,O=C(O)c1ccc2oc(=O)c(S(=O)(=O)c3ccc(F)cc3)cc2c1,17.4
11,CCCCOc1ccc(C2C(C(=O)c3cccs3)=C(O)C(=O)N2CCN2CCOCC2)cc1 (centres unmarked),17.2
12,O=C(O)COCC(=O)Nc1ccccc1-c1ccccc1,25
13,COc1cc2c(cc1OC)CN(C(=O)Nc1ccccc1Cl)CC2,13.4
14,Cc1cccc2cc(C3CC(c4cccs4)=NN3S(C)(=O)=O)c(Cl)nc12 (centres unmarked),9.38
15,O=C(Cn1cc(C(=O)c2cccs2)c2ccccc21)NCc1ccc2c(c1)OCO2,1.12
16,O=S(=O)(c1ccccc1)N1CCN=C1SCc1cccnc1,7.15
17,CC(=O)c1cccc(NC(=S)NC2CCCCC2)c1,-8.44
18,CC(NS(=O)(=O)c1ccc(Br)cc1)C(=O)Nc1nc2ccccc2[nH]1 (centres unmarked),0.413
19,CCOC(=O)C1=C(O)CSC1=Nc1cccc(Cl)c1,11
20,Cc1ccc(NCC(=O)N=Nc2c(O)[nH]c3ccc([N+](=O)[O-])cc23)cc1,3.12
21,CCOc1cc(C2C(C(=O)c3ccc(C)cc3)=C(C(=O)OC)Nc3nnnn32)ccc1O (centres unmarked),9.37
22,Cc1ccc(N2C(=O)/C(=C/c3cccnc3)SC2=S)cc1,16.7
